Experimental data from the RNAGym collection of RNA variant scans (doi:10.7554/elife.90254).
The source gives no read counts; variants with many changes may rest on few reads.

B1: OR4K15 (parent)
chain: GUUAACGGUCAUAGGCCAUGGAAACUAGGAGCACCAUUUCGCUGCCAGUGAAGAAAUGAACAAAGAAAAUCUGGGCCAGGCAGGCAUCAAAAGAAAUAGUCUUGCGCUCAACCAGAAAGUCUGUAAUCAUUUUAAGGGUA

Variants of: B1
Assay: self-cleavage, relative activity (ratio to wild type); higher = more cleavage; in vitro, sequencing; the parent is a self-cleaving ribozyme

Variant	self-cleavage
GUUAACGGUCAUAGGCCAUGGAAACUAGGAGCACCAUUUCGCUGCCAGUGAAGAAAUGAGCAAGGAAAAUCUGGGCCAGGCAGGCUUCAAAAGAAUUAGUCUUGCGCUCAACCAGAAAGUCUGUAAUCAUUUUAAGGGUA [A60G A64G A86U A96U]	1.48
GUUAACGGUCAUAGGCCAUGGAAACUAGGAGCACCAUUUCGCUGCCAGUGAAGAAAUGUACAAAGAAAGUCUGGGCCUGGCAGGCAUCCAAAGAAAUAGUCUUGCGCUCAACCAGAAAGUCUGUAAUCAUUUUAAGGGUA [A59U A69G A78U A89C]	0.23
GUUAACGGUCAUAGGCCAUGGAAACUAGGAGCACCAUUUCGCUGCCAGUGAAGAAAUGUACAAGGAAAAUCUGGGCCAGGCAGGCAUCAGAAGAAAUGGUCUUGCGCUCAACCAGAAAGUCUGGAAUCAUUUUAAGGGUA [A59U A64G A90G A98G U124G]	0.03
GUUAACGGUCAUAGGCCAUGGAAACUAGGAGCACCAUUUCGCUGCCAGUGAAGAAAUGGACAAAGAAAAUCUGGGCCAGGCAGGCAUCAAAAGAAAUAGUCUUGCGCUCAACCAGAAAGACUGUAAUCAUUCUAAGGGUA [A59G U120A U132C]	1.2
GUUAACGGUCAUAGGCCAUGGAAACUAGGAGCACCAUUUCGCUGCCAGUGAAGAAAUGAGCAAGGAAAAUCUGGGCCAGGCAGGCAUCAAAAGAAGUAGUCUUGCGCUCGACCAGAAAGUCUGUAAUCAUUCUAAGGGUA [A60G A64G A96G A110G U132C]	0.2
GUUAACGGUCAUAGGCCAUGGAAACUAGGAGCACCAUUUCGCUGCCAGUGAAGAAAUGGACAAAGAAAAUCUGGGCCAGGCAGGCAUCAAAAGAAAUAGUCUUGCGCUCAACCAGAAAGUCUGAAAUCAUUUUAUGGGUA [A59G U124A A135U]	0.18
GUUAACGGUCAUAGGCCAUGGAAACUAGGAGCACCAUUUCGCUGCCAGUGAAGAAAUGGACAAAGAAAAUCUGGGCCAGGCAGGCAUCAAAAGAAAUAGUCUUGCGCCCAACCAGAAAGUCUGUAAUCAUUUUAAGGGUG [A59G U108C A140G]	0.02
GUUAACGGUCAUAGGCCAUGGAAACUAGGAGCACCAUUUCGCUGCCAGUGAAGAAAUGACCAAAGAAAAUCUGGGCCAGGCAGGCAUCAAAAGGAAUAGUCUUGCGCUCAACCGGAAAGUCUGUAACCAUCUUAAGGGUA [A60C A94G A114G U127C U131C]	0.09
GUUAACGGUCAUAGGCCAUGGAAACUAGGAGCACCAUUUCGCUGCCAGUGAAGAAAUGAGCAGAGAAAAUCUGGGCCAGGCAGGCAUCAAAAGAAAUAGUCCUGCGCUCAACCAGAGGGUCUGUAAUCAUUUUAAGGGUA [A60G A63G U102C A117G A118G]	1.83
GUUAACGGUCAUAGGCCAUGGAAACUAGGAGCACCAUUUCGCUGCCAGUGAAGAAAUGUACAAAGAAAAUCCGGGCCAGGCAGGCAUCAAAAGAACUAGUCUUGCGCUCAUCCAGAAAGUCUGUAAUCAUUUUAAGGGUA [A59U U72C A96C A111U]	0.04
GUUAACGGUCAUAGGCCAUGGAAACUAGGAGCACCAUUUCGCUGCCAGUGAAGAAAUGGACAAAGAAAAUCUGGGCCAGGCAGGCAUCAAAAGAAAUAGCCUUGCGCUCAACCAGAAAGUCUGUAAUCACUUUAAGGGUA [A59G U100C U130C]	2.44
GUUAACGGUCAUAGGCCAUGGAAACUAGGAGCACCAUUUCGCUGCCAGUGAAGAAAUGAGCGAAGAAAAUCUGGGCCAGGCAGGCAUCAAAAGAAAUAGUCUUGCGCUCAACCGGGAAGUCUGUAAUCAUUUUAAGGGUA [A60G A62G A114G A116G]	0.05
GUUAACGGUCAUAGGCCAUGGAAACUAGGAGCACCAUUUCGCUGCCAGUGAAGAAAUGAGCAUAGAAAAUCUGGGCCAGGCAGGCAUCAAAAGAAAUAGUCUUGCGCUCAGCCAGAAAGUCUGUAAUCAUUUUAAGGGUA [A60G A63U A111G]	0.05
GUUAACGGUCAUAGGCCAUGGAAACUAGGAGCACCAUUUCGCUGCCAGUGAAGAAAUGUACAAAGAAAAUCUGGGCCAGGCAGGCAUCAAAAGAAGUAGUCUUGAGCUCAACCAGAAAGUCUGUAAUCAUUUUAAGGGUA [A59U A96G C105A]	0.03
GUUAACGGUCAUAGGCCAUGGAAACUAGGAGCACCAUUUCGCUGCCAGUGAAGAAAUGACCAAAGAAAAUCUGGGCCAGGCAGGCAUCAAAAGAAAUAGUCUUGCGCUCAACCUGAAAGUCUGUAAUCAUUUUAGGGGUA [A60C A114U A135G]	0.05
GUUAACGGUCAUAGGCCAUGGAAACUAGGAGCACCAUUUCGCUGCCAGUGAAGAAAUGAGCAGAGAAAAUCUGGGCCAGGCAGGCAUCAGAAGAAAUAGUCUUGCGCUCAACCAGAAAGUCUGUAUUCAUUUUAAGGGUA [A60G A63G A90G A126U]	0.54
GUUAACGGUCAUAGGCCAUGGAAACUAGGAGCACCAUUUCGCUGCCAGUGAAGAAAUGGACAAAGAAAAUCUGGGCCAGGCAGGCAUCAAAAGAAAUAGUCUUGCGCUCAACCAGAAAGUCUGUAAUCAGUCUAAGGGUA [A59G U130G U132C]	1.75
GUUAACGGUCAUAGGCCAUGGAAACUAGGAGCACCAUUUCGCUGCCAGUGAAGAAAUGAGCAAGGAAUAUCUGGGCCAGGCAGGCAUCAAAAGUAAUAGUCUUGUGCUCAACCAGAAAGUCUGUAAUCAUUUUAAGGGUA [A60G A64G A68U A94U C105U]	0.22
GUUAACGGUCAUAGGCCAUGGAAACUAGGAGCACCAUUUCGCUGCCAGUGAAGAAAUGAGCGAAGAAAAUCUGGGCCAGGCAGGCAUCAAAAGAAAUAGUCUUGCGCUCAACCAGAAAGUCUGUAAUCACUUUAAGGGUA [A60G A62G U130C]	0.43
GUUAACGGUCAUAGGCCAUGGAAACUAGGAGCACCAUUUCGCUGCCAGUGAAGAAAUGAGCAAGGAAAAUCUGGGCCAGGCAGGCAUCAAAAGAAAUAGUCUUGCGCUCAACCAGAAAGUGUGUAAUCAUUCUAAGGGUA [A60G A64G C121G U132C]	2.53
GUUAACGGUCAUAGGCCAUGGAAACUAGGAGCACCAUUUCGCUGCCAGUGAAGAAAUGGACAAAGAAAAUCUGGGCCAGGCAGGCAUCAAAAGAAAUAGUCUUGCGCUCAACCAGAAAGCCUAUAAUCAUUUUAAGGGUA [A59G U120C G123A]	0.78
